Experimental data taken from PubChem BioAssay AID1508624 (National Center for Advancing Translational Sciences (NCATS), 2021).
Among all 48,000 compounds or so, about 120 (0.25%) were called active. About 4% were inconclusive and are not listed. Calls come from the whole dose curve; as a rule, active = well fitted activation curve with a large enough effect; inconclusive = small, poorly fitted or top-dose-only effect, or another doubt; inactive = no such curve, though single readings can be large or run the other way. Some of the results follow.

Experiment: Primary qHTS for Identification of Small Molecule Activators of Huntingtin-Antisense Promoter Activity; note: nearly all actives have a fitted effect of over 55% in size
Conditions: HEK293 HTT-AS promoter firefly luciferase reporter, 24 h; series mostly up to 57.5 µM; activity change, positive = activation: at the top concentration
Summary of the method: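 HEK293 cells carrying firefly luciferase reporters were seeded at 2,500 per well in Opti-MEM and cultured for 24 h. They were then treated with compounds at up to 57.5 uM final for 24 h at 37 degrees C before Dual-Glo luminescence readout.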

Row | SMILES | activity change, positive = activation
1 | COc1ccc(Cl)cc1NC(=O)CSc1nc(=O)[nH]c2c1CCCC2 | inactive: -10.5%
2 | CCOc1ccc(NC(=O)Cn2cc(C(=O)c3ccccc3)c(=O)c3cc4c(cc32)OCO4)cc1 | inactive: -29%
3 | Cc1ccc(Cn2c(=O)n(-c3ccc(C)c(C)c3)c(=O)c3c(C)c(C)sc32)cc1 | inactive: -20.3%
4 | Cc1ccc2oc(-c3ccc(NC(=O)c4cccc(F)c4)c(C)c3)nc2c1 | inactive: -20.8%
5 | COc1ccc(NC(=O)c2cc(C)nc3c2c(C)nn3-c2cccc(Cl)c2C)c(OC)c1 | inactive: -19.7%
6 | CC(=O)N1c2c(cc(Br)cc2S(=O)(=O)NCc2ccccc2Cl)CC1C (stereo unspecified) | inactive: -22.1%
7 | CN(C)CCOc1ccccc1Cc1ccccc1 | inactive: -6.48%
8 | COc1cc(Cl)c(NC(=O)CN(C)S(=O)(=O)c2ccc3c(c2)CCCC(=O)N3)c(OC)c1 | inactive: -29%
9 | COc1cc(NC(=O)N2CCC(CN3CCc4ccccc4C3)CC2)cc(OC)c1 | inactive: -11.9%
10 | CCOc1ccc(OCC)c(NC(=O)c2csc3c2CCCC3)c1 | inactive: -3.75%
11 | O=C1COc2cc(S(=O)(=O)CCC(=O)N3CCN(c4ccccc4)CC3)c(Cl)cc2N1 | inactive: -24.8%
12 | Cc1ccc(S(=O)(=O)NCCc2nnc3ccc(SCC(=O)Nc4ccc(OC(F)(F)F)cc4)nn23)cc1 | inactive: -14.3%
13 | CCCc1ccc(-c2ccc(C(=O)Oc3ccc(Br)cc3)cc2)nc1 | inactive: -2.5%
14 | CCOc1ccc(NC(=O)Cn2c(=O)c(CNc3ccccc3)cc3cc4c(cc32)OCCO4)cc1 | inactive: -12.3%
15 | COC(=O)c1ccc(CSc2nc3c([nH]c4ccccc43)c(=O)n2-c2cc(C)cc(C)c2)o1 | inactive: -30.5%
16 | N=C(N)N1CCc2ccccc2C1 | inactive: -12.7% [at 6 µM, percent change from vehicle, -100% = no light]
17 | CN(C(=O)Cn1ncc2c1-c1ccccc1OC2)c1ccc(Br)cc1 | inactive: -21.3%
18 | CCCCCn1c(CNC(=O)c2ccc(F)cc2)nc2ccccc21 | inactive: -8.09%
19 | CCS(=O)(=O)c1cccc(C(=O)N2CCN(c3nc4c(C)ccc(Cl)c4s3)CC2)c1 | inactive: -47.9%
20 | CCOC(=O)c1c(C)[nH]c(C)c1S(=O)(=O)N1CCC(C(=O)NCc2ccc(N(C)C)cc2)CC1 | inactive: -4.09%
21 | CN(C)C1(CNC(=O)COc2ccc(C(C)(C)C)cc2)CCCCC1 | inactive: -7.28%

Row | SMILES | activity change, positive = activation
22 | O=C(Nc1ccc2c(c1)OCO2)c1cc(-c2ccc(Cl)cc2)on1 | inactive: -1.31%
23 | CCCCCn1c(-c2cccc(C)c2)nc2ccccc21 | inactive: -21.5%
24 | COc1ccccc1OCC(=O)Nc1c(C(=O)c2ccc(C)cc2)oc2ccccc12 | inactive: -8.63%
25 | COc1ccccc1CNS(=O)(=O)c1ccc(N2CCCCS2(=O)=O)cc1 | inactive: -9.31%
26 | COc1ccc(OC)c(CCNC(=O)C(C)n2c(C)c3cnn(-c4ccccc4)c(=O)c3c2C)c1 (stereo unspecified) | inactive: -11%
27 | Cc1ccc(C(=O)N(CCCN)[C@@H](c2nc3cc(Cl)ccc3c(=O)n2Cc2ccccc2)C(C)C)cc1 | inactive: -29%
28 | COc1ccc(Cl)cc1C(=O)Nc1c2c(nn1-c1ccc(Cl)cc1)CS(=O)(=O)C2 | inactive: -3.37%
29 | Cc1cc(C)cc(-n2ccnc(NCc3ccc(F)cc3)c2=O)c1 | inactive: -20.3%
30 | COc1ccccc1CNS(=O)(=O)c1ccc2c(c1)CC(C)N2C(C)=O (stereo unspecified) | inactive: -35.3%
31 | O=C(NCc1ccccc1)c1ccc(CNS(=O)(=O)c2ccc(Br)cc2)cc1 | inactive: -17.8%
32 | CC1CCN(S(=O)(=O)c2ccc3c(c2)N(CC(=O)NC(C)c2ccccc2)C(=O)CS3)CC1 (stereo unspecified) | inactive: -26%
33 | CC(C)Cn1cc(NC(=O)N2CCN(c3cccc(Cl)c3)CC2)c2ccccc2c1=O | inactive: -6.21%
34 | Cc1ccc(C)c(N2CCN(S(=O)(=O)c3ccc4[nH]c5c(c4c3)CCCCC5)CC2)c1 | inactive: -29.6%
35 | CCc1ccc(NC(=O)N2CCOc3ccc(Cl)cc32)cc1 | inactive: 24.7%
36 | COc1cc(Cl)c(S(=O)(=O)NCCc2c(C)[nH]c3c(C)cccc23)cc1Cl | inactive: -27.1%
37 | O=C(O)c1cc(=O)c2ccccc2o1 | inactive: -0.832%
38 | CCCn1c(=O)c2[nH]c(-c3cnn(Cc4cccc(C(F)(F)F)c4)c3)nc2n(CC)c1=O | inactive: -0.363%
39 | Cc1ccc(-c2nc(NC(=O)CSc3cc(C)c4ccccc4n3)ns2)cc1 | inactive: -2.57%
40 | Cc1cc(C)c(NC(=O)c2cc(S(=O)(=O)N3CCC4(CC3)OCCO4)ccc2F)c(C)c1 | inactive: 4.16%
41 | CCCCN(CC)C(=O)CSc1nc2n[nH]c(C)c2c(=N)n1-c1cccc(Cl)c1 | inactive: -47.5%
42 | CCOC(=O)c1[nH]c(C)c(CCC(=O)N2CCN(c3cccc(OC)c3)CC2)c1C | inactive: -11.4%

Row | SMILES | activity change, positive = activation
43 | Cc1ccc(-c2noc(-c3ccccc3NC(=O)c3ccccc3)n2)cc1 | inactive: 21.6%
44 | CCOc1ccc(NC(=O)Cn2ncc3c2-c2cc(C)ccc2OC3)cc1 | inactive: -20.7%
45 | CCC(=O)N1CCc2cc(Br)cc(S(=O)(=O)CCC(=O)NCc3ccccc3OC)c21 | inactive: 10.8%
46 | COc1ccccc1C(=O)NCCn1cc(SCC(=O)Nc2ccccc2F)c2ccccc21 | inactive: -44.4%
47 | Cc1ccc(CNC(=O)C(=O)Nc2c3c(nn2-c2ccccc2)CSC3)cc1 | inactive: -22.5%
48 | COc1ccc(OC)c(NS(=O)(=O)c2ccc3c(c2)C(C)(C)C(=O)N3C)c1 | inactive: -11.7%
49 | Cc1ccc(C)c(NC(=O)N2CCN(C(=O)c3nsc4ccccc34)CC2)c1 | inactive: -28.2%
50 | COc1cc(Cl)c(C)cc1NC(=O)C1CCN(c2nc3ccccc3n3cccc23)CC1 | inactive: -31.8%
51 | COc1ccc(CNC(=O)c2cc3cc4cc(OC)ccc4nc3o2)cc1 | inactive: 11.9%
52 | COc1cccc(CNC(=O)c2ccc3c(c2)c(C)c(C)n3Cc2ccccc2)c1 | inactive: -9.98%
53 | Cc1nnc(N2CCC(C(=O)NC3CCCCC3)CC2)c2nn(-c3ccccc3)c(C)c12 | inactive: -7.82%
54 | CCOc1ccccc1N(CC)C(=O)Cn1ncc2c([nH]c3ccccc32)c1=O | inactive: -46.2%
55 | Clc1cccc(-c2ccc(CNCCSc3nnnn3-c3ccccc3)o2)c1 | inactive: -9.42%
56 | O=C(c1ccccc1)N1CCN(CCc2ccncc2)CC1 | inactive: -19.5%
57 | CC(=O)c1ccc(NC(=O)c2nc3ccccc3nc2N2CCCCC2)cc1 | inactive: -10.3%
58 | COc1ccc(Cn2c(C(=O)O)c(CNCc3ccccc3F)c3ccc(OC)cc32)cc1 | inactive: -28.6%
59 | COC(=O)c1ccc(C2c3c(-c4ccccc4O)n[nH]c3C(=O)N2Cc2cccnc2)cc1 (stereo unspecified) | inactive: 9.09%
60 | CCCSc1ncc(Cl)c(C(=O)Nc2ccc(S(=O)(=O)N(C)c3ccccc3)cc2)n1 | inactive: -37.3%
61 | CCN(CCCNC(=O)Cn1ncc2c3ccccc3n(C)c2c1=O)Cc1ccccc1 | inactive: -11.5%
